The chains are these.
T1: BSL3 (BSU1-like 3 Ser/Thr protein phosphatase), Gal4 DNA-binding domain fusion (Arabidopsis thaliana) (UniProt Q9SHS7)
T1 sequence: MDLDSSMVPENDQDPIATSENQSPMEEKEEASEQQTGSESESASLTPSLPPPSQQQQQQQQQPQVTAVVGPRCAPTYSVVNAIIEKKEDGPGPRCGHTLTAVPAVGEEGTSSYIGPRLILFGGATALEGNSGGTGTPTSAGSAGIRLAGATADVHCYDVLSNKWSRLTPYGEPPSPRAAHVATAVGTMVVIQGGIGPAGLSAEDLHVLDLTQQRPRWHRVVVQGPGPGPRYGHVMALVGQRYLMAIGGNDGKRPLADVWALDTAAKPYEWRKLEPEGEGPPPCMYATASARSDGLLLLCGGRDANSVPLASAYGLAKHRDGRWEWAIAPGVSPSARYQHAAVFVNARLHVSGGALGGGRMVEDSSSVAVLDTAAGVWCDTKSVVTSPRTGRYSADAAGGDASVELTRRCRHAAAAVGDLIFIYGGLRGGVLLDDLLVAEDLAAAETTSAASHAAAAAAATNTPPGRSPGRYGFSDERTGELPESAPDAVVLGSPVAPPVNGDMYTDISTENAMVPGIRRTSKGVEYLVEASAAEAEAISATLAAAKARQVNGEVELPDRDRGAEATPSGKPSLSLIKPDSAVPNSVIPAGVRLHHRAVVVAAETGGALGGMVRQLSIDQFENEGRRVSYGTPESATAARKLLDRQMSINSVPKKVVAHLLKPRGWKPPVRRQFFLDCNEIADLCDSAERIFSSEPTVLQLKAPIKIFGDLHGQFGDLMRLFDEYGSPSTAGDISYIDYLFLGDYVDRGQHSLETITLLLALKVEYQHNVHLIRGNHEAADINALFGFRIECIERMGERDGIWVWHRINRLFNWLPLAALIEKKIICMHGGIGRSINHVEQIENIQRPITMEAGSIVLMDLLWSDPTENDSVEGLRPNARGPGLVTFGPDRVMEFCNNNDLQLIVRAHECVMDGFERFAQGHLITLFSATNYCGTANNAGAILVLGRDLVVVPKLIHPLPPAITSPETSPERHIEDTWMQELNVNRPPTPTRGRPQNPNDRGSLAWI

Chains of the proteins cited; added tags and fusions are not shown.
UniProt Q9LR78: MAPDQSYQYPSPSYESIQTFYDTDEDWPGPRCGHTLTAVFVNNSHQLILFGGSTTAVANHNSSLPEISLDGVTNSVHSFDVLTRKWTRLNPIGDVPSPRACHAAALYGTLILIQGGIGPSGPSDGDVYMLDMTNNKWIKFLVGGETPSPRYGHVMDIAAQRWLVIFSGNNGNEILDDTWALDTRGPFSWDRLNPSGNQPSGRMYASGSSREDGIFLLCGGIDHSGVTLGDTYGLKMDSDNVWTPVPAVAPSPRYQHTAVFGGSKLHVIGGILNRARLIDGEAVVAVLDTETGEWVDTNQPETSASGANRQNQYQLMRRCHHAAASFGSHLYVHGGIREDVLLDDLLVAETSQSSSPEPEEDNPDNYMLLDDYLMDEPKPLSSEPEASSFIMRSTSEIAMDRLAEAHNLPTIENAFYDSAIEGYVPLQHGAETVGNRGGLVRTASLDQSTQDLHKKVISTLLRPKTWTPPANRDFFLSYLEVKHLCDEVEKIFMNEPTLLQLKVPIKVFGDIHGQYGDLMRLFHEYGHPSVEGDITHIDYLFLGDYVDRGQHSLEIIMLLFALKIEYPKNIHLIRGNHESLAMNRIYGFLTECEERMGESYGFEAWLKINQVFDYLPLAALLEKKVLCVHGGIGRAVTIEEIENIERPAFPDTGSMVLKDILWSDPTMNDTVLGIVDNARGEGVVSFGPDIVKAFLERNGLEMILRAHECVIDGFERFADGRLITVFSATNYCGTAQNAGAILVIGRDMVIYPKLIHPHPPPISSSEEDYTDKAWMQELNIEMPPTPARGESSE

T2: BSL2 (BSU1-like 2 Ser/Thr protein phosphatase), Gal4 DNA-binding domain fusion (Arabidopsis thaliana) (UniProt Q9SJF0)
T2 sequence: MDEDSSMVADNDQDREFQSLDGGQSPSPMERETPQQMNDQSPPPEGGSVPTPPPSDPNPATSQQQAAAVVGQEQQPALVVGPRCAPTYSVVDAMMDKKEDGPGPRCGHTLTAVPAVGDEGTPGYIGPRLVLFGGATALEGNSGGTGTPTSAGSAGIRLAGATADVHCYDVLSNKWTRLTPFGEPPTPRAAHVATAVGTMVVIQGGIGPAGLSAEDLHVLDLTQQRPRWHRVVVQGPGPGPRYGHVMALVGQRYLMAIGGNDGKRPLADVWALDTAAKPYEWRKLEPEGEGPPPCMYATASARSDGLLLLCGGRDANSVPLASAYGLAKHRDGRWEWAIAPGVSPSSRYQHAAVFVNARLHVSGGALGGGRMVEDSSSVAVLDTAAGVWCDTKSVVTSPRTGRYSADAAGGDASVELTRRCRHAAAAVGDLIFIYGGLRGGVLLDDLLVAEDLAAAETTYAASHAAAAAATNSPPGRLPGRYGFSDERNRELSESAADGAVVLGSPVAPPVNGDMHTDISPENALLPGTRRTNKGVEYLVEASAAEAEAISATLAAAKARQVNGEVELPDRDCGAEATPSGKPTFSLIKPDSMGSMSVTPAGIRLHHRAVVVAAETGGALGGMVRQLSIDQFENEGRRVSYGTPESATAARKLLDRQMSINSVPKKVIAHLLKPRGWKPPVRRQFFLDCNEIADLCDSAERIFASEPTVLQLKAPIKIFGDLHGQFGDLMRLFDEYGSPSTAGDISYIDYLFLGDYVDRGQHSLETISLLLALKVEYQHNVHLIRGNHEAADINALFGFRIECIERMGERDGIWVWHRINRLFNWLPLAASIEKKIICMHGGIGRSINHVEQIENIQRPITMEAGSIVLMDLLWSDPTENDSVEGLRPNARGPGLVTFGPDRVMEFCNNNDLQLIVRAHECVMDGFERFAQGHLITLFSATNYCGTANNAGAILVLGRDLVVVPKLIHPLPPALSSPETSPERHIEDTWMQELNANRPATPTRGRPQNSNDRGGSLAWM

T3: BSL1 (BSU1-like 1 Ser/Thr protein phosphatase), Gal4 DNA-binding domain fusion (Arabidopsis thaliana) (UniProt Q8L7U5)
T3 sequence: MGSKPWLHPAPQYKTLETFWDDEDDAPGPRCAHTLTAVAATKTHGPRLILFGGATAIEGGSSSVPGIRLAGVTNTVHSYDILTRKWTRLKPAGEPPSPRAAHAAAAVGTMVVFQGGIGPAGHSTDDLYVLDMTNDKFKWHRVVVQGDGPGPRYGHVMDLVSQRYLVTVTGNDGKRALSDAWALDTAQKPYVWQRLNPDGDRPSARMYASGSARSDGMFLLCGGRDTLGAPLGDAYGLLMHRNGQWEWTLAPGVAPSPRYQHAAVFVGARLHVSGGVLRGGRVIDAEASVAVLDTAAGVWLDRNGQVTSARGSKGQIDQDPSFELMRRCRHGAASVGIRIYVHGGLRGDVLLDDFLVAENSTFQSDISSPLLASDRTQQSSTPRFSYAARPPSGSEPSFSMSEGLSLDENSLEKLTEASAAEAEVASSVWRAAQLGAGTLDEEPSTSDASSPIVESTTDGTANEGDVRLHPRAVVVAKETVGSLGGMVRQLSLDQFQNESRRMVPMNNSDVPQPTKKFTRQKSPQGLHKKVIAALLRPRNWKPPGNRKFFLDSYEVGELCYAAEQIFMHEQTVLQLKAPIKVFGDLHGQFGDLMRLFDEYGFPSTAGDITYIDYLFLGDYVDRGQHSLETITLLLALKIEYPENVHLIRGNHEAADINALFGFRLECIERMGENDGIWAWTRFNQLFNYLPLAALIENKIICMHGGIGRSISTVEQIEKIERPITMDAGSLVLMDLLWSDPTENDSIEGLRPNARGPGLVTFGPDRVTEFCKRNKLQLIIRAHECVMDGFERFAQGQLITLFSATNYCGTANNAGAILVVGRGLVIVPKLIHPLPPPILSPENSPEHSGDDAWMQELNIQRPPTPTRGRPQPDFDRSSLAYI

B1: MAPKK 5 (MKK5), Gal4 activation domain fusion (enzyme, UniProt Q8RXG3 1-348)
chain: MKPIQSPSGVASPMKNRLRKRPDLSLPLPHRDVALAVPLPLPPPSSSSSAPASSSAISTNISAAKSLSELERVNRIGSGAGGTVYKVIHTPTSRPFALKVIYGNHEDTVRRQICREIEILRSVDHPNVVKCHDMFDHNGEIQVLLEFMDQGSLEGAHIWQEQELADLSRQILSGLAYLHRRHIVHRDIKPSNLLINSAKNVKIADFGVSRILAQTMDPCNSSVGTIAYMSPERINTDLNHGRYDGYAGDVWSLGVSILEFYLGRFPFAVSRQGDWASLMCAICMSQPPEAPATASQEFRHFVSCCLQSDPPKRWSAQQLLQHPFILKATGGPNLRQMLPPPRPLPSAS
B2: ICE1/SCREAM (SCRM), Gal4 activation domain fusion (protein, UniProt Q9LSE2 1-494)
chain: MGLDGNNGGGVWLNGGGGEREENEEGSWGRNQEDGSSQFKPMLEGDWFSSNQPHPQDLQMLQNQPDFRYFGGFPFNPNDNLLLQHSIDSSSSCSPSQAFSLDPSQQNQFLSTNNNKGCLLNVPSSANPFDNAFEFGSESGFLNQIHAPISMGFGSLTQLGNRDLSSVPDFLSARSLLAPESNNNNTMLCGGFTAPLELEGFGSPANGGFVGNRAKVLKPLEVLASSGAQPTLFQKRAAMRQSSGSKMGNSESSGMRRFSDDGDMDETGIEVSGLNYESDEINESGKAAESVQIGGGGKGKKKGMPAKNLMAERRRRKKLNDRLYMLRSVVPKISKMDRASILGDAIDYLKELLQRINDLHNELESTPPGSLPPTSSSFHPLTPTPQTLSCRVKEELCPSSLPSPKGQQARVEVRLREGRAVNIHMFCGRRPGLLLATMKALDNLGLDVQQAVISCFNGFALDVFRAEQCQEGQEILPDQIKAVLFDTAGYAGMI
B3: … (SPCH), Gal4 activation domain fusion (protein, UniProt Q700C7 1-364)
chain: MQEIIPDFLEECEFVDTSLAGDDLFAILESLEGAGEISPTAASTPKDGTTSSKELVKDQDYENSSPKRKKQRLETRKEEDEEEEDGDGEAEEDNKQDGQQKMSHVTVERNRRKQMNEHLTVLRSLMPCFYVKRGDQASIIGGVVEYISELQQVLQSLEAKKQRKTYAEVLSPRVVPSPRPSPPVLSPRKPPLSPRINHHQIHHHLLLPPISPRTPQPTSPYRAIPPQLPLIPQPPLRSYSSLASCSSLGDPPPYSPASSSSSPSVSSNHESSVINELVANSKSALADVEVKFSGANVLLKTVSHKIPGQVMKIIAALEDLALEILQVNINTVDETMLNSFTIKIGIECQLSAEELAQQIQQTFC
B4: MAPK 3 (MPK3), Gal4 activation domain fusion (enzyme, UniProt Q39023 1-370)
chain: MNTGGGQYTDFPAVETHGGQFISYDIFGSLFEITSKYRPPIIPIGRGAYGIVCSVLDTETNELVAMKKIANAFDNHMDAKRTLREIKLLRHLDHENIIAIRDVVPPPLRRQFSDVYISTELMDTDLHQIIRSNQSLSEEHCQYFLYQLLRGLKYIHSANIIHRDLKPSNLLLNANCDLKICDFGLARPTSENDFMTEYVVTRWYRAPELLLNSSDYTAAIDVWSVGCIFMELMNRKPLFPGKDHVHQMRLLTELLGTPTESDLGFTHNEDAKRYIRQLPNFPRQPLAKLFSHVNPMAIDLVDRMLTFDPNRRITVEQALNHQYLAKLHDPNDEPICQKPFSFEFEQQPLDEEQIKEMIYQEAIALNPTYG
B5: MAPKK 4 (MKK4), Gal4 activation domain fusion (enzyme, UniProt O80397 1-366)
chain: MRPIQSPPGVSVPVKSRPRRRPDLTLPLPQRDVSLAVPLPLPPTSGGSGGSSGSAPSSGGSASSTNTNSSIEAKNYSDLVRGNRIGSGAGGTVYKVIHRPSSRLYALKVIYGNHEETVRRQICREIEILRDVNHPNVVKCHEMFDQNGEIQVLLEFMDKGSLEGAHVWKEQQLADLSRQILSGLAYLHSRHIVHRDIKPSNLLINSAKNVKIADFGVSRILAQTMDPCNSSVGTIAYMSPERINTDLNQGKYDGYAGDIWSLGVSILEFYLGRFPFPVSRQGDWASLMCAICMSQPPEAPATASPEFRHFISCCLQREPGKRRSAMQLLQHPFILRASPSQNRSPQNLHQLLPPPRPLSSSSSPTT

Among the data in article PMC9068801 are binding values, retold here.

No constants are given. Whether binding was seen depends on the method and setting. Some results given as binding are weak or reduced against the parent protein; the word gives no strength. Where a sequence is shown, tags or fusion partners need not be part of it.

The first experiment deals with T1, BSL3 (BSU1-like 3 Ser/Thr protein phosphatase), Gal4 DNA-binding domain fusion (Arabidopsis thaliana). Briefly: two-hybrid; Gal4 system in S. cerevisiae AH109; BSL proteins as bait in pGBKT7 (BD-), partners as prey in pGADT7 (AD-); tested on SD/-Leu/-Trp/-His with 1 mM 3-AT; 3 days at 30 °C.
On to B1, for which the binding result was “no binding”.

Take B2: the binding result is recorded as “no binding”.

B3: the binding result is on record as “no binding”.

For B4, the binding result is reported as “binds”.

With B5, the binding result is reported as “no binding”.

The next experiment concerns the target BSU1 (bri1 Suppressor 1) phosphatase, Gal4 DNA-binding domain fusion (Arabidopsis thaliana) (UniProt Q9LR78). The description is as above.
B1: the binding result is reported as “no binding”.

As to B2, the binding entry is reported as “no binding”.

In the case of B3, the binding result is recorded as “no binding”.

Regarding B4, the binding entry is “binds”.

As for B5, the binding result is reported as “no binding”.

The next experiment addresses T2, BSL2 (BSU1-like 2 Ser/Thr protein phosphatase), Gal4 DNA-binding domain fusion (Arabidopsis thaliana). The experiment is described as above.
On to B1, for which the binding result was “no binding”.

B2: the binding result is “no binding”.

With B3, the binding entry is given as “no binding”.

For the molecule B4, the binding result was “binds”.

On to B5, for which the binding entry was “no binding”.

The target of another experiment is T3, BSL1 (BSU1-like 1 Ser/Thr protein phosphatase), Gal4 DNA-binding domain fusion (Arabidopsis thaliana). The experiment is described as above.
As to B1, the binding result is listed as “no binding”.

Regarding B2, the binding entry is “no binding”.

For the molecule B3, the binding entry was “no binding”.

For B4, the binding result is on record as “no binding”.

In the case of B5, the binding result is on record as “no binding”.
